Reference: PubChem BioAssay AID1476 (National Center for Advancing Translational Sciences (NCATS), 2009)
The whole screen tested about 200,000 compounds, of which about 4,500 (2.2%) were called active. Inconclusive results, whose numbers are uncertain, are shown with a selection of clear calls. Calls come from the whole dose curve; as a rule, active = well fitted inhibition curve with a large enough effect; inconclusive = small, poorly fitted or top-dose-only effect, or effect the other way; inactive = flat fitted curve, though single readings scatter. Potencies of inconclusive entries are doubtful fits and often do not repeat.

The compounds below were run against Cruzipain (Trypanosoma cruzi) (UniProt P25779) (assay: qHTS Assay for Promiscuous and Specific Inhibitors of Cruzain (without detergent)). Details: purified cruzain, Z-FR-AMC fluorescence, no detergent.
Chain of UniProt P25779 (P25779 whole entry, looked up): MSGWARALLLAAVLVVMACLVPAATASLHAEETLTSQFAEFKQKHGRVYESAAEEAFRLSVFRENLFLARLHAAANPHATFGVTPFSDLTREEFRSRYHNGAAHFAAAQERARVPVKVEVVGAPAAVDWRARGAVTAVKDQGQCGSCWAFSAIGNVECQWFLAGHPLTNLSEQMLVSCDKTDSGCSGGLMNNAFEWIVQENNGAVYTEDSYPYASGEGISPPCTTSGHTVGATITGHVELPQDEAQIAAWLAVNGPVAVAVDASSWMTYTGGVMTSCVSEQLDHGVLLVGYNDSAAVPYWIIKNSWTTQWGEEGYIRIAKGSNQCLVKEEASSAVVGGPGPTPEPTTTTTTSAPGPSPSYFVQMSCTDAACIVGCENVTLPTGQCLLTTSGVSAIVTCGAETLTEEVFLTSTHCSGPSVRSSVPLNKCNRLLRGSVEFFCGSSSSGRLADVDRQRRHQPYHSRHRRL
How it was run: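 Detergent-free condition (0.00005% Triton X-100) in acetate buffer pH 5.5 with DTT. 1.5 nM enzyme and compound were pre-mixed 15 min, then 2 uM Z-FR-AMC substrate added; reaction progress from fluorescence change between first and third reads (60 s).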
Note: nearly all actives have a fitted effect of over 40% in size.
Potency is the fitted concentration of half-maximal effect; tags give direction and shape of the fitted curve.
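Throughout, for max response, negative = inhibition: plate controls were enzyme without inhibitor for no effect and buffer without enzyme for full effect.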

Row | Structure (SMILES) | Potency | max response, negative = inhibition
1 | O=C(CSc1ncc(-c2ccccc2)n1C1CCCC1)N1CCc2ccccc21 | inconclusive: 39.8 µM [inhibitor, single point] | –
2 | Cn1c(=O)c(-c2ccccc2)nc2cnc(Oc3ccccc3)nc21 | inconclusive: 25.1 µM [inhibitor, partial curve] | –
3 | O=S(=O)(O/N=C1\CCCc2ccccc21)c1ccc(Cl)cc1 | – | inactive: -5.92%
4 | Cc1cc(CNC(=O)[C@H](C)[C@@H]2C[C@@]2(C)[C@@H](NC(=O)OCc2ccccc2)c2ccccc2)nn1C | inconclusive: 39.8 µM [activator, single point] | –
5 | Nc1c(C(=O)c2ccc(Cl)cc2)oc2ccccc12 | inconclusive: 39.8 µM [inhibitor, single point] | –
6 | Nc1ccc2nc(-c3ccccc3)sc2c1 | inconclusive: 25.1 µM [activator, single point] | –
7 | Cc1noc(C)c1C(=O)N1CCC2(CCCN(C(c3ccccc3)c3ccccc3)C2)CC1 | – | inactive: 21.5%
8 | Cc1cccc(NC(=O)Cn2c(O)c(N=NC(=O)c3ccccc3O)c3ccccc32)c1 | inconclusive: 20 µM [inhibitor, single point] | –
9 | Cc1ccc(NC(=O)CC2Oc3ccccc3NC2=O)cc1C (stereo not drawn) | – | inactive: -21.2%
10 | COc1ccc(NC(=O)CSc2nnc3c4c(nc(-c5ccccc5)n23)CC(C)(C)OC4)cc1 | inconclusive: 39.8 µM [activator, single point] | –
11 | COC(=O)C1C2CCC(C2)C1C(=O)OCC(=O)c1ccc(C)cc1 (stereo not drawn) | inconclusive: 6.31 µM [inhibitor, single point] | –
12 | Cc1oc(-c2ccccc2F)nc1CS(=O)CC(=O)NC(C)C (stereo not drawn) | – | inactive: -16.9%
13 | CCC1(CC)NC(=O)N(CC(=O)OCn2nnc3ccccc3c2=O)C1=O | – | inactive: 3.47%
14 | O=C(CSc1nc2c([nH]c3ccccc32)c(=O)n1-c1ccc(F)cc1)N1CCc2ccccc21 | – | inactive: 11.2%
15 | COc1ccc(CNC(=O)C2CCCN(S(=O)(=O)c3ccc4c(ccn4C)c3)C2)c(OC)c1 (stereo not drawn) | – | inactive: -10%
16 | COc1ccc(C(=O)[C@]2(C)C=C(c3ccc(OC)cc3)[C@H](C)C2)cc1 | – | inactive: 3.64%
17 | Cc1ccc([N+](=O)[O-])cc1S(=O)(=O)N(C(=O)c1ccncc1)c1ccc2oc3c(c2c1)CCCC3 | active: 12.6 µM | –
18 | COc1cc(OC)c(N(C)C(=O)c2c(C)oc3ncnc(N4CCCCC4)c23)cc1Cl | inconclusive: 39.8 µM [activator, single point] | –
19 | CCOC(=O)Cc1cc(OC)c(OC)cc1Cc1cc(OC)c(OC)cc1CC(=O)OCC | inconclusive: 31.6 µM [activator, partial curve] | –
20 | N#Cc1nc(-c2ccco2)oc1N1CCN(C(c2ccccc2)c2ccccc2)CC1 | inconclusive: 31.6 µM [inhibitor, single point] | –
21 | Cc1cc(=O)[nH]c(SCC(=O)N2c3ccccc3CC2C)n1 (stereo not drawn) | – | inactive: -2.54%
22 | Cc1cc(C)c(NC(=O)CN2C(=O)c3cccnc3Sc3ccccc32)c(C)c1 | inconclusive: 20 µM [activator, partial curve] | –

Row | Structure (SMILES) | Potency | max response, negative = inhibition
23 | COc1c2c(cc3c1C(CC(O)C(C)C)N(C)CC3)OCO2 (stereo not drawn) | – | inactive: 7.87%
24 | CC(=O)O[C@]1(C(C)=O)CC[C@H]2[C@@H]3C=C(C)C4=CC(=O)CC[C@]4(C)[C@H]3CC[C@@]21C | inconclusive: 31.6 µM [activator, single point] | –
25 | CCOC(=O)N1CCC(NC(=O)C2CCCN(C(=O)N3CCOc4ccccc43)C2)CC1 (stereo not drawn) | inconclusive: 15.8 µM [activator, partial curve, poor fit] | –
26 | COc1cc(OC)c(NC(=O)N2CCc3c([nH]c4ccccc34)C2c2ccccc2F)cc1Cl (stereo not drawn) | active: 15.8 µM | –
27 | Cc1cc(C)n(-c2cc(N3CCOCC3)nc(-c3ccccc3)n2)n1 | inconclusive: 31.6 µM [activator, single point] | –
28 | Cn1c(=O)n(Cc2ccc(Cl)cc2)c(=O)c2c1nc1n2CCN1Cc1ccco1 | inconclusive: 39.8 µM [activator, single point] | –
29 | O=C(C1CCC(Cn2c(=O)c3sccc3n(Cc3ccccc3)c2=O)CC1)N1CCOCC1 (stereo not drawn) | – | inconclusive: 150% [activator]
30 | O=C(Nc1cccc(Cl)c1N1CCCC1)c1cccc(-c2cc3ccccc3oc2=O)c1 | active: 10 µM | –
31 | CCC(=O)N1CCc2cc(CNC(=O)c3ccccc3C)ccc21 | – | inactive: 0.0773%
32 | Cc1ccc2sc(-c3ccc(N)cc3)nc2c1 | inconclusive: 15.8 µM [activator, partial curve] | –
33 | O=C(Nc1ccc2nc(SCC(=O)N3CCc4ccccc43)sc2c1)c1ccccc1 | inconclusive: 15.8 µM [inhibitor, partial curve] | –
34 | COc1cccc(NC(=O)CSc2nnc(-c3cccc(OC)c3)o2)c1 | inconclusive: 31.6 µM [activator, single point] | –
35 | CSc1ccc(CNC(=O)Cn2nc(N3CCN(c4ccccc4)CC3)ccc2=O)cc1 | inconclusive: 39.8 µM [activator, single point] | –
36 | CS(=O)(=O)N1CCC2(CCCN(c3cccc(-c4ccccc4)c3)C2)CC1 | inconclusive: 31.6 µM [activator, single point] | –
37 | COc1cc2c(cc1NC(=O)Nc1ccccc1)oc1ccccc12 | inconclusive: 31.6 µM [inhibitor, single point] | –
38 | Cc1cccc(NC(=O)CSc2nnc(NC(=O)Nc3ccccc3)s2)c1C | – | inactive: -5.52%
39 | COc1cccc(C2CC(=O)Nc3c2ccc(C)c3C)c1OC (stereo not drawn) | – | inactive: -3.2%
40 | COc1ccc(S(=O)(=O)c2c(Nc3ccccc3F)sc(C(=O)c3cccc(OC)c3)c2N)cc1 | active: 12.6 µM | –
41 | CCOC(=O)c1sc(NC(=O)CSc2nc3c(cc2C#N)CCCCCC3)c(C#N)c1C | inconclusive: 39.8 µM [inhibitor, single point] | –
42 | CC(=O)N=c1sc2ccccc2n1C | – | inactive: -4.18%
43 | O=c1c2ccc(Cl)cc2nc(-c2cccc(C(F)(F)F)c2)n1O | inconclusive: 25.1 µM [inhibitor, single point] | –
